The structures appear in SMILES notation. The full ranking holds about 110,000 compounds; the median of “z-score” is about -0.1, and the highest 2% start at about 2. The list shows a part of the results. Calls of active or inactive are those of the source.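 Rule for the calls: active = z-score in the third read window above 3 or below -3; inactive = the rest.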

The assay deals with Metabotropic glutamate receptor 8 (Rattus norvegicus) (UniProt P70579). The assay can be described thus: rat mGluR8 modulators via GIRK flux, primary screen, cell-based, thallium flux, HTS (AID 488969). Particulars: HEK293 rat mGluR8, GIRK (G protein-gated inwardly rectifying potassium channel) thallium flux, FluoZin2; at 10 µM; stronger effect = higher value; submaximal glutamate (EC20) added with thallium.
Chain of UniProt P70579 (P70579 whole entry, looked up): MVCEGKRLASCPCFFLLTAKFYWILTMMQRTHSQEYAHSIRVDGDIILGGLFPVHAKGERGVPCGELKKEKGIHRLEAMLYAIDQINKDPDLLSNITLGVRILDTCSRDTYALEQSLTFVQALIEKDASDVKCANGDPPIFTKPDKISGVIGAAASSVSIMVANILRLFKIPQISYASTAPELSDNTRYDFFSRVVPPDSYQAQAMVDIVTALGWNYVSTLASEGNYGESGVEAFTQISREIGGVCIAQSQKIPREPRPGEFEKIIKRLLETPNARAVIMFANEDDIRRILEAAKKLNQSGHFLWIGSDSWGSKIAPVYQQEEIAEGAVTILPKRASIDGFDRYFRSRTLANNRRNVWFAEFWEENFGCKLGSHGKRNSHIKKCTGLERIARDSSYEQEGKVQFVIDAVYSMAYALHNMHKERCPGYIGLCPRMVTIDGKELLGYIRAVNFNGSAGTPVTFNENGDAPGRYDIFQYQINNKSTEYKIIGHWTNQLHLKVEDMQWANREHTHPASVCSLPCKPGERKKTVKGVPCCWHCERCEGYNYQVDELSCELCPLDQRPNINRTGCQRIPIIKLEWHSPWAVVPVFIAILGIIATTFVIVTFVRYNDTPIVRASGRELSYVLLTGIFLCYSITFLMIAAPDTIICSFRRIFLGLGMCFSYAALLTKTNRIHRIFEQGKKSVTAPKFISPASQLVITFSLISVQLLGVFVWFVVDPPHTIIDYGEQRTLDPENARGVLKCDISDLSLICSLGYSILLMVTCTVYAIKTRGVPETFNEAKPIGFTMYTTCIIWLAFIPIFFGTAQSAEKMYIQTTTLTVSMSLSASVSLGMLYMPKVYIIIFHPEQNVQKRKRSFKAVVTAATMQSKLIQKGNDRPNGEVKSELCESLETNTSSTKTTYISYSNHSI
For the compound `Cc1ccc2nc(CCc3nc4ccc(C)cc4o3)oc2c1`, the z-score is 0.382.

Take `CC1C(=O)CC(c2ccccc2)NC1c1ccccc1` (stereo not drawn): the z-score was -0.85.

In turn, `C/C(=N\NC(=O)c1ccncc1)c1cc2ccccc2oc1=O` showed a z-score of 0.493.

Take `COc1ccccc1CNC(=O)CSCc1cnn(-c2ccccc2)c1-n1cccc1`: the z-score was determined as 0.000619.

Turning to `Cc1onc(-c2ccccc2Cl)c1C(=O)NC(=S)NCCc1ccccc1`, the z-score is 2.63.

The compound `CC1CN(C2CCN(C(=O)c3cccc(Cl)c3)CC2)CC(C)O1` (stereo not drawn) gave a z-score of -0.0147.

In turn, `Cc1cc(C)cc(NC(=S)NC(=O)CCN2C(=O)c3ccccc3C2=O)c1` displayed a z-score of 0.174.

Take `CCOc1cc(C)c(Cl)cc1S(=O)(=O)N1CCCC1`: the z-score came out at 0.0735.

Take `O=C(c1ccco1)N1CCN(Cc2nc3ccccc3c(=O)n2-c2ccc(F)cc2)CC1`: the z-score amounted to 0.209.

For the compound `CCCCOC(=O)c1ccc(-c2ccc(/C=N/NC(=S)NCC)o2)cc1`, the z-score is -0.116.

`Cc1[nH]c2ccccc2c1C(Nc1nccs1)c1ccncc1` (stereo not drawn) displayed a z-score of -0.266.

In turn, `CCNC(=S)NNC(=O)c1ccccc1Cl` registered a z-score of -0.211.

`CC(Oc1ccc(Cl)cc1)C(=O)/C=C/N(C)C` (stereo not drawn) came in with a z-score of 0.0414.

`Cc1ccc(/C=N/NC(=O)CCSc2ccccc2)cc1` showed a z-score of 0.31.

Compound `CC(Sc1nc(-c2ccccc2)cc(C(F)(F)F)n1)C(=O)NCc1ccco1` (stereo not drawn) showed a z-score of 1.22.

In turn, `O=C(CSc1nc2ccccc2c(=O)n1-c1ccccc1)NCc1ccco1` came in with a z-score of -1.73.

For `Fc1cccc(CSc2nc3ncccc3[nH]2)c1`, the z-score was -0.0206.

The compound `CC(C)C1=C2CCCCC2NC(=O)N1` (stereo not drawn) registered a z-score of 0.143.

On to `CCc1oc2c(C)c(O)ccc2c(=O)c1-c1ccc2ccccc2n1`, for which the z-score is -0.0989.

In turn, `COc1ccc(CNC(=O)C(c2ccncc2)N(C(=O)Cc2cccs2)c2ccccc2C)cc1` (stereo not drawn) showed a z-score of -0.607.

In the case of `CC1Cc2ccccc2N1S(=O)(=O)c1cccs1` (stereo not drawn), the z-score was -1.12.

On to `Cc1cccc(OCCOCCSc2ncccn2)c1`, for which the z-score came to 0.623.

`c1ccc(-c2nc(CSc3nnc(-c4cccs4)o3)cs2)cc1` showed a z-score of 0.246.

`COC(=O)c1cc2oc(C)cc2n1CC(=O)Nc1ccc(C)c(C)c1`: the z-score was -0.125.

Consider `COc1cccc(C(=O)N(CN2CCCC2=O)c2cccc(Cl)c2)c1OC`, for which the z-score is -0.257.

As for `Cc1cc(N2C(=O)CCC2=O)n(-c2ccccc2)n1`, the z-score was -0.0495.

Take `O=C1CCC(=O)N1CCC(c1ccc(F)cc1)c1ccco1` (stereo not drawn): the z-score is 0.178.

The compound `O=C(N/N=C/c1c[nH]c2ccccc12)C1CC1(c1ccccc1)c1ccccc1` (stereo not drawn) returned a z-score of -0.618.

Compound `O=C(CSc1nc(N2CCCCC2)nc(N2CCCCC2)n1)c1ccccc1` returned a z-score of -0.0244.

Compound `O=C(O/N=C\c1ccc(N2CCCCC2)c([N+](=O)[O-])c1)c1ccc(Cl)cc1Cl` yielded a z-score of -0.494.

As to `COc1ccc(NC(=O)c2nc3nccc(C)n3n2)cn1`, the z-score was -0.0689.

Compound `Cc1cccnc1NC(=O)C1CCCN(S(=O)(=O)c2ccc3c(c2)oc(=O)n3C)C1` (stereo not drawn) yielded a z-score of 0.166.

`CC1(C)CC(c2nc(-c3ccc(Cl)cc3)cs2)CCS1` (stereo not drawn) registered a z-score of 0.117.

Compound `CN(C)S(=O)(=O)c1ccc(C(=O)Nc2ccc(F)cc2F)cc1` came in with a z-score of -0.255.

Turning to `CC(C)c1ccccc1NC(=O)COc1ccc(C(=O)NCCc2ccccc2)cc1`, the z-score was -0.165.

`CN(C)CC(C)(C)CNC(=S)NCc1ccc2c(c1)OCO2` had a z-score of -0.249.

`O=C(c1ccc(C(=O)N2CCCCCC2)cc1)N1CCCCCC1` showed a z-score of 0.224.

Turning to `Cc1ccc(-c2csc(N3N=C(c4ccccc4)/C(=C\c4ccc(N(C)C)cc4)C3=O)n2)cc1`, the z-score was found to be 0.277.

In turn, `CCOC(=O)c1cc(-c2ccccc2)sc1NC(=S)Nc1cccc(C)n1` displayed a z-score of -0.085.

Take `O=C(N/N=C/c1cc2ccccc2nc1Cl)[C@H]1C[C@@H]1c1ccccc1`: the z-score was -0.657.

In the case of `COC(=O)c1ccc(CS(=O)(=O)c2ccccc2C)o1`, the z-score came to 0.118.

Take `CC(C)(C)NC(=O)/C=N/O`: the z-score is -0.25.

Turning to `Cc1cc(C(=O)OCC(=O)N2CCCC2)c2ccccc2n1`, the z-score came to 0.184.

Regarding `CCC(Oc1ccccc1)C(=O)N1CCC(C(N)=O)CC1` (stereo not drawn), the z-score is -0.00452.

Turning to `COc1cccc(/C=N/n2c(N)nc3ccccc32)c1OC`, the z-score was -1.06.

`COCCN(C(=O)c1csnn1)C(C(=O)NC1CCCCC1)c1sccc1C` (stereo not drawn) had a z-score of 0.325.

In turn, `COc1ccc(-c2cc(C(=O)NN)n(-c3ccccc3)n2)cc1` registered a z-score of -0.0183.

The compound `Cc1ccc(N2C(=O)N(CC(=O)NC(c3ccccc3)c3ccccc3)C(=O)C2C)cc1` (stereo not drawn) showed a z-score of -0.506.

For `Cn1c(=O)c2c(ncn2CC(=O)N/N=C/c2ccco2)n(C)c1=O`, the z-score turned out to be 1.59.

Turning to `CC(CCc1ccccc1)NC(=O)C1CCN(S(=O)(=O)N2CCCCC2)CC1` (stereo not drawn), the z-score is 0.0266.

The compound `COC(=O)c1ccc(-n2cnc(Cl)n2)c(F)c1` showed a z-score of -0.211.

`O=C1c2cccnc2C(O)N1Cc1cccs1` (stereo not drawn) gave a z-score of -0.156.

For `CC(C)CCNC(=O)CN(CCCN1CCOCC1)C(=O)Cn1nnc(-c2ccc(F)cc2)n1`, the z-score is -0.562.

Turning to `Cc1occc1C(=O)NCCc1cccc(Cl)c1`, the z-score is -0.377.

As for `O=C(N/N=C\c1cccc(Cl)c1)c1ccc(Cn2cccn2)o1`, the z-score is -0.386.

For the compound `CCOC(=O)CNC(=O)CSc1nc(Cc2cccs2)nc2ccccc12`, the z-score was determined as 1.26.

Compound `Cc1cc(-n2c(C)cc(C(=O)CN3C(=O)NC4(CCCCCC4)C3=O)c2C)no1` registered a z-score of -0.193.

Regarding `CCCCCC1CC(/C(C)=N/NC(N)=O)OC1=O` (stereo not drawn), the z-score came out at 0.0545.

`Cc1ccc(NC(=S)NC2CCCC2)cc1C`: the z-score is -0.0629.

`CC1SCCN1S(=O)(=O)c1ccc2ccccc2c1` (stereo not drawn) displayed a z-score of -0.104.

For `O=C1CCc2cc(S(=O)(=O)NC(C(=O)NCc3cccnc3)c3ccccc3)ccc2N1` (stereo not drawn), the z-score is -0.174.

In the case of `COc1ccc(N(C(=O)CCl)C(C(=O)NC2CCCCC2)c2cccnc2)cc1` (stereo not drawn), the z-score was -0.11.

Compound `COCCNC(=O)Cn1cc(C(=O)c2cccs2)c2ccccc21` returned a z-score of -0.255.

In turn, `CSCC[C@@H](C(=O)NCc1cccs1)N1Cc2ccccc2C1=O` came in with a z-score of -0.0163.

Take `Nc1nonc1-n1nnc(C(=O)N/N=C/c2ccc(Br)cc2)c1CSC1=NCCS1`: the z-score came to 1.27.

For the compound `CC(=O)c1cc(F)c(N2CCN(c3ccc([N+](=O)[O-])cc3F)CC2)cc1C`, the z-score was 0.648.

Compound `O=C1CC2CS(=O)(=O)CC2N1c1ccc(Oc2ccccc2)cc1` (stereo not drawn) showed a z-score of -0.00875.

Consider `CSc1ncccc1C(=O)OCC(=O)N(C)C1CCS(=O)(=O)C1` (stereo not drawn), for which the z-score was -0.109.

As for `Cc1noc(/C=C/N(C)C)c1S(=O)(=O)N1CCc2ccccc21`, the z-score was -0.557.

Consider `COC(=O)C1=NN(c2ccc(Cl)cc2)C2C(=O)N(c3ccccc3OC)C(=O)C12` (stereo not drawn), for which the z-score is -0.00475.

As for `CCC(C)NC(=S)NNC(=O)c1ccc(C(C)(C)C)cc1` (stereo not drawn), the z-score worked out at 0.0253.

For the compound `O=C(COc1ccccc1)N1CCN(C(=O)c2ccco2)CC1`, the z-score was found to be 0.264.

`Cc1nn(C(=O)Cn2ccc([N+](=O)[O-])n2)c(C)c1Br` had a z-score of -0.0558.

In turn, `COc1ccc(CCNS(=O)(=O)c2ccc(S(=O)(=O)N3CCCC3)cc2)cc1OC` returned a z-score of -0.803.

Consider `CC1CCCCN1S(=O)(=O)c1ccc(S(=O)(=O)N2CCN(c3ccccc3)CC2)cc1` (stereo not drawn), for which the z-score is -0.215.

For `Cc1ccccc1NC(=O)CC1(c2ccc(N(C)C)cc2)C(=O)c2ccccc2C1=O`, the z-score worked out at 0.0393.

In turn, `Cc1cccc(NC(=O)C2CCN(S(=O)(=O)c3cccc4cccnc34)CC2)c1` displayed a z-score of -0.323.

In turn, `CN(C)S(=O)(=O)c1ccc2c(c1)nc(CCC(=O)NCC1CCCCC1)n2C` came in with a z-score of 0.000798.

For `O=C(CN1CCOCC1)Nc1ccc(OCc2ccccc2)cc1`, the z-score worked out at 0.323.

With `O=C(/C=C/c1cccc([N+](=O)[O-])c1)NCCSCc1c(Cl)cccc1Cl`, the z-score was -0.218.

Take `CCNC(=S)NC1CC2CCCC(C1)N2Cc1ccco1` (stereo not drawn): the z-score is -0.317.

As to `NNC(=O)CC12CC3CC(C1)CC(n1ncnn1)(C3)C2`, the z-score is -0.194.

For the compound `COc1cc(CNc2nc(C)c([N+](=O)[O-])c(C)c2C#N)cc(OC)c1OC`, the z-score is -0.238.

Turning to `CCc1ccc(Cn2nnc(C(=O)Nc3ccc(OC)cc3OC)c2N)cc1`, the z-score is -0.354.

As to `CCN(CC)CCn1c(=N)n(CCO)c2ccccc21`, the z-score was 0.377.

As for `CCOC(=O)N1CCN(CCC(=O)Nc2ccc(OC(F)(F)F)cc2)CC1`, the z-score came to 0.144.

`CCC(C)(NC(=O)CNC(C)=O)C(=O)NC1CCCCC1` (stereo not drawn): the z-score was 1.28.

`CC(=Nc1ccccc1)C1=C(O)CCCC1=O` came in with a z-score of -0.104.

The compound `CC(C)c1ccc(C2NC(C(=O)O)CS2)cc1` (stereo not drawn) registered a z-score of -0.475.

Consider `O=c1c(C(c2ccccc2)c2c(O)sc3ccccc3c2=O)c(O)sc2ccccc12`, for which the z-score was active: 7.03.

`Cc1ccc(NC(=O)C2CC(=O)N(Cc3ccccc3)C2)cc1S(=O)(=O)N1CCCCCC1` (stereo not drawn) yielded a z-score of -0.141.

`COc1cc(/C=C/C(=O)O)cc(S(=O)(=O)Nc2cccc(SC)c2)c1OC` gave a z-score of -0.0051.

In turn, `Cc1ccccc1NC(=O)OCc1cccnc1Sc1ccc(Cl)cc1` showed a z-score of -0.033.

The compound `COc1ccc(CS(=O)(=O)/C(Cl)=C(/Cl)C(=O)Nc2ccc(OC)nc2)cc1` registered a z-score of -0.34.

As for `CCn1c(SCC(=O)c2ccc(Br)cc2)nnc1C(C)NC(=O)Cc1ccc(OC)cc1` (stereo not drawn), the z-score turned out to be 0.0709.

The compound `CCc1nnc(NS(=O)(=O)c2ccc(N/C=C/C(=O)c3ccc(C)cc3)cc2)s1` gave a z-score of -0.0758.

`CCCCC(=O)Nc1ccc2c(c1)OCCO2`: the z-score is -0.139.

With `COC(=O)c1sc2ccccc2c1NC(=O)c1ccc(S(=O)(=O)N2CCCCC2)cc1`, the z-score is -0.105.

`Cc1cc[n+](-c2nc([O-])n(-c3ccccc3)c2C=O)cc1` displayed a z-score of 0.651.

`Cc1ccc(C(=O)CSc2nc3cccnc3n2C)cc1` displayed a z-score of -1.01.

Consider `COC(=O)C(C)N(C(=O)c1cccc2ccccc12)c1c(C)cccc1C` (stereo not drawn), for which the z-score is -1.36.

`C=CCOc1ccc(/C(O)=C2\C(=O)C(=O)N(CCCOC)C2c2ccc(O)c(OC)c2)cc1` (stereo not drawn): the z-score is -0.44.

`COc1ccc(NC(=O)CN2CCCCC2)cc1`: the z-score was 0.473.

Regarding `O=C(C(c1ccccc1)N1CCOCC1)N1CCOCC1` (stereo not drawn), the z-score is -0.177.

Turning to `COc1cc(/C=N/NC(=O)C(=O)NCC2CCCO2)ccc1O` (stereo not drawn), the z-score came to 0.158.

Compound `CC/C(=N/Nc1ccccc1)c1cnnc(SC)n1` had a z-score of -0.222.

For `Cc1cccc(NC(=O)COC(=O)c2ccccc2-c2nc3ccccc3s2)c1C`, the z-score was -0.272.

`Cc1ccc(N2C(=O)c3ccccc3C2=O)cc1C` showed a z-score of -0.283.

As for `Cn1nnnc1SCC(=O)c1ccco1`, the z-score was 0.0313.

In the case of `Cn1c(-c2ccc(Br)cc2)cnc1NCc1cccnc1`, the z-score is -0.358.

As to `CCCCNc1nc(CC)c2c(c1C#N)CCCC2`, the z-score was -0.796.

As for `COc1ccc(-c2nnc(SCC(=O)NCc3ccco3)o2)cc1`, the z-score turned out to be 0.651.

`CCOC(=O)CNc1ccc2c(c1)OCO2`: the z-score was -0.395.
